{"source": "paper PMC12136788", "binders": {"B1": {"name": "chr7:141438946:141438947:+_ENSG00000106028_ENST00000265304|hu_mus|hu_hu_hu_mus_True|98_98 (ssRNA)", "RNA": "GGGAGUUCUACAGUCCGACGAUCGACGAAAUACCUGACAGGUCUUCCUUCGAAACAUGGCUUCUGUUUUUCUUACAACCUAAUCUUUAGGCUUUUCCUAAAGGAAAGAAAGAAAAGAGAAAAAUGAUAAAUCAAGAAACUACACAACAGAGGAUUGAGCAUCA"}, "B2": {"name": "chr2:90620368:90620369:+_ENSMUSG00000008200_ENSMUST00000013759|mus_hu|FALSE|FALSE (ssRNA)", "RNA": "GGGAGUUCUACAGUCCGACGAUCUGUCUUGUUGUAUUUACUGCCACAUACUUGAGGGGAAAUUCUCAAAAUCAAGGAUAUGAACACCUGCUGCUGCCUGUAUGCCACCUAGUGUGCGAAACGACCGAGCUACCAGUUCUAGAACAACAGAGGAUUGAGCAUCA"}, "B3": {"name": "chr2:48034816:48034817:-_ENSG00000138081_ENST00000403359|hu_mus|motif|central (ssRNA)", "RNA": "GGGAGUUCUACAGUCCGACGAUCUCAUAUUCUCAAUCUGAAUACAUGUUAAACAAAAAAAAAAAAAUCAAUGCAGAAGUGCGGGCUCACAUUUUUACCAUAUUACAAAAAGCAAUUGGUACCCAUGUCCAUAAAGGCAGCAACCAACAGAGGAUUGAGCAUCA"}, "B4": {"name": "chr2:157386987:157386988:+_ENSMUSG00000067786_ENSMUST00000109526|perfect_dup|FALSE|FALSE (ssRNA)", "RNA": "GGGAGUUCUACAGUCCGACGAUCGGAGUACCUGAACACCUCACUUCUCGCAAUGGGCUGUGUCCCUGGAGGAUUUCGAAAAGCGAAUCCUACCCAGUAAAUGCAGCAUUCCAGGAACACCUGCAGCAGCACGCGGAAGAUGUACAACAGAGGAUUGAGCAUCA"}, "B5": {"name": "chr14:88400820:88400821:-_ENSG00000054983_ENST00000261304|hu_hu|FALSE|FALSE (ssRNA)", "RNA": "GGGAGUUCUACAGUCCGACGAUCGAGCUACCUCAGUGUUAGCAGCAAGGCUUCGAGGUCUGUACUACUCAAACCACUCCUAAGGGUAUGGCCAAUGCACAGUUUGAAUGUUAGGGAACACACCAGGUAAUGUUAAAGAUUCACCAACAGAGGAUUGAGCAUCA"}, "B6": {"name": "chr19:16212804:16212805:+_ENSG00000167460_ENST00000300933|hu_mus|hu_hu_hu_mus_False|58_108 (ssRNA)", "RNA": "GGGAGUUCUACAGUCCGACGAUCAACAAAUAUGCAAUGAAGGAAAGAUGUAACAUGGAACAGCAUUAAAGCUCAGUAUUACUAUAUAUGGGCAACAAUGAUCACCCCAGCAUUCUCGCUUGGAAUGCUUAAAGACAAUCUGUUCAACAGAGGAUUGAGCAUCA"}}, "note": "Some of the results follow.", "data": [{"target": "T1, UNK ZnF1-3 (human, UniProt Q9C0B0 31-174)", "T1 sequence": "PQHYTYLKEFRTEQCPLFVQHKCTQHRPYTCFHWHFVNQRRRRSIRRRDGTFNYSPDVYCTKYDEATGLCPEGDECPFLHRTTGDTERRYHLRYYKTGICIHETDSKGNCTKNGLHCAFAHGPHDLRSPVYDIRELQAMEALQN", "test": "nsRBNS (natural sequence RNA bind-n-seq); RBNS binding buffer (assumed for nsRBNS): 25 mM Tris pH 7.5, 150 mM KCl, 3 mM MgCl2, 0.01% Triton X-100, 500 ug/ml BSA, 20 U/ml SUPERase-In, 4 C; UNK is unkempt and MSI1 is Musashi-1; names of the RNAs are library labels; protein concentration not given here; high values mean tight binding", "units": {"binding signal": "enrichment R"}, "values": [{"binder": "B1", "binding signal": 0.548}, {"binder": "B2", "binding signal": 1.73}, {"binder": "B3", "binding signal": 2}, {"binder": "B4", "binding signal": 0.81}, {"binder": "B5", "binding signal": 1.11}, {"binder": "B6", "binding signal": 0.852}]}]}
